{"source": "paper PMC6919601", "about": "“Identification of Plasmodium dipeptidyl aminopeptidase allosteric inhibitors by high throughput screening” (PLoS ONE, 2019)", "note": "The campaign covered roughly 110,000 compounds. About 230 (0.21%) showed an effect of 50% or more. The list shows a part of the results.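 Further: 30 min substrate incubation versus DMSO and 10 µM JCP410 controls.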"}
{"target": "DPAP1 (Plasmodium falciparum, UniProt Q8IIJ9)", "sequence (Q8IIJ9 whole entry, looked up)": "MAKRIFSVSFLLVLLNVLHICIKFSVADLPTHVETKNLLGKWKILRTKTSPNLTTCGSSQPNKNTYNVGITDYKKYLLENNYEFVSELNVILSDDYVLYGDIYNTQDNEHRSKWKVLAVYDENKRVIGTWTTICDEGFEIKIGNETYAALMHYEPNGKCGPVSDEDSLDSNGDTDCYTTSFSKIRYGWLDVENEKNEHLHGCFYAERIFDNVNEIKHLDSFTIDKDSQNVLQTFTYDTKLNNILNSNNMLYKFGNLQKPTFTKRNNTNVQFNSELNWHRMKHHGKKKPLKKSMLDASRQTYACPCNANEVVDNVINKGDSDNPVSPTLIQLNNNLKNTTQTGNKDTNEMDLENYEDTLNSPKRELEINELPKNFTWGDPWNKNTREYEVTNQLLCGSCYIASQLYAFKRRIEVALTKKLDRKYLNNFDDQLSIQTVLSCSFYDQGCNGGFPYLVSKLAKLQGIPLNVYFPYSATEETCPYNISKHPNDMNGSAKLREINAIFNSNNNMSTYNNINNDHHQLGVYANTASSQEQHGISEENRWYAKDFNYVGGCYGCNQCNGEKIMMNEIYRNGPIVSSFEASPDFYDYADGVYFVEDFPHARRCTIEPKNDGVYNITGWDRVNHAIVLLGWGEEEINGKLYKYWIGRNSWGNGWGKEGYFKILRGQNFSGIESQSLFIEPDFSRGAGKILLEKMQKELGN", "test": "primary screen, percent inhibition; read by cleavage of a fluorogenic dipeptide substrate; higher = more effect of the substance", "parameters": "species or system P. falciparum D10 trophozoite lysates; single well", "units": {"% Inhibition @ 10 uM": "%"}}
{"smiles": "CC1=CC2=NC(=O)/C(=C\\c3cccn3CCCOc3ccc(C)cc3)C(=N)N2O1", "% Inhibition @ 10 uM": -1.43}
{"smiles": "COc1cc(OC)nc(NC(=O)Nc2ccc(Cl)cc2)n1", "% Inhibition @ 10 uM": 2.38}
{"smiles": "COc1ccc(C)cc1NC(=O)c1cccnc1", "% Inhibition @ 10 uM": 3.89}
{"smiles": "COc1ccc(C(=O)Nc2cnn(Cc3ccc(Cl)cc3)c2)cc1OC", "% Inhibition @ 10 uM": -2.97}
{"smiles": "CP(=O)(O)c1nc2ccccc2s1", "% Inhibition @ 10 uM": -2.44}
{"smiles": "O=C(Nc1cccc(O)c1)c1ccc(S(=O)(=O)N2CCCCCC2)cc1", "% Inhibition @ 10 uM": -2.37}
{"smiles": "CCN(CC)CCNc1ncnc2c1cnn2-c1ccc(C)cc1", "% Inhibition @ 10 uM": 4.77}
{"smiles": "COc1ccc(CCNC(=O)Cn2c(=O)c3cccn3c3cccnc32)cc1OC", "% Inhibition @ 10 uM": -6.92}
{"smiles": "CC(C)C[C@H](NC(=O)[C@H](CCCNC(N)=O)NC(=O)OC(C)(C)C)C(=O)NCC#N", "% Inhibition @ 10 uM": -1.82}
{"smiles": "Cc1cccc(OCC(O)Cn2nc(C)cc2C)c1", "note": "(stereo not drawn)", "% Inhibition @ 10 uM": -5.26}
{"smiles": "COc1cccc(C(=O)N[C@@H](Cc2cc(Cl)c(O)c(Cl)c2)C(=O)NCC#N)c1", "% Inhibition @ 10 uM": 1.7}
{"smiles": "Cc1ccc2c(c1)-c1onc(C(=O)Nc3cc(-c4cccc(Cl)c4)no3)c1CO2", "% Inhibition @ 10 uM": -2.9}
{"smiles": "Cc1ccc(C2C(C=C3C(=O)NC(=O)NC3=O)=C(c3cccs3)Oc3ccccc32)cc1", "note": "(stereo not drawn)", "% Inhibition @ 10 uM": -0.467}
{"smiles": "O=C(Nc1ccc2nc(SCC(=O)N3CCOCC3)sc2c1)c1ccccc1Br", "% Inhibition @ 10 uM": 15.8}
{"smiles": "COc1ccc2ncc(C(=O)c3ccc(C)cc3)c(N3CCOCC3)c2c1", "% Inhibition @ 10 uM": -7.13}
{"smiles": "COc1ccc(CN(C)C2CCN(C)CC2)cc1C", "% Inhibition @ 10 uM": -0.828}
{"smiles": "O=c1/c(=C/c2ccc(O)cc2)sc2n1CCCN=2", "% Inhibition @ 10 uM": 5.85}
{"smiles": "O=S(=O)(Nc1ccc(S(=O)(=O)Nc2ccc(F)cc2)cc1)c1ccc(Cl)cc1", "% Inhibition @ 10 uM": -2.8}
{"smiles": "Cn1c(=O)[nH]c(=O)c2c1nc(SCC(=O)O)n2Cc1cccc(Br)c1", "% Inhibition @ 10 uM": -6.7}
{"smiles": "O=C(NC1c2ccccc2Oc2ccccc21)c1cnccn1", "% Inhibition @ 10 uM": 3.01}
{"smiles": "Cc1cc(N2CCC(C(N)=O)CC2)nc2cc(O)ccc12", "% Inhibition @ 10 uM": -8.68}
{"smiles": "CCOc1ccccc1CNCc1c(C(=O)O)[nH]c2cc(C)ccc12", "% Inhibition @ 10 uM": -1.53}
{"smiles": "COc1ccc(CCNS(=O)(=O)c2ccc3oc(=O)c4ncn(C)c4c3c2)cc1OC", "% Inhibition @ 10 uM": -3.9}
{"smiles": "O=C(c1cccs1)N(Cc1ccco1)Cc1ccccc1Cl", "% Inhibition @ 10 uM": -2.21}
{"smiles": "CC(C(=O)NCc1ccc(Cl)cc1)n1cccc1C(=O)c1ccccc1", "note": "(stereo not drawn)", "% Inhibition @ 10 uM": -0.522}
{"smiles": "C=CCn1c(SC(C)C)nnc1-c1ccc2[nH]c(C)c(C)c2c1", "% Inhibition @ 10 uM": 0.238}
{"smiles": "Cc1ccc(C)c(-c2nc(NC(=O)C3C4C=CC(C4)C3C(=O)O)sc2C)c1", "note": "(stereo not drawn)", "% Inhibition @ 10 uM": 7.16}
{"smiles": "N#CC1=C(N)OC2=C(C(=O)CC(c3ccccc3)C2)C1c1ccc2c(c1)OCO2", "note": "(stereo not drawn)", "% Inhibition @ 10 uM": 6.56}
{"smiles": "O=S(=O)(NCc1ccc(F)cc1)c1ccc(-n2cnnn2)cc1", "% Inhibition @ 10 uM": 0.635}
{"smiles": "Nc1ccccc1-c1nc(-c2ccccc2)nc2ccccc12", "% Inhibition @ 10 uM": -2.42}
{"smiles": "Cc1ccccc1C(=O)Nc1sc2c(c1C(=O)NCCO)CCC(C(C)(C)C)C2", "note": "(stereo not drawn)", "% Inhibition @ 10 uM": 5.31}
{"smiles": "COc1cc2c(cc1OC)C(c1cccc(Br)c1)NCC2", "note": "(stereo not drawn)", "% Inhibition @ 10 uM": 3.31}
{"smiles": "CC(C)n1c(-c2nonc2N)nc2ccccc21", "% Inhibition @ 10 uM": 7.62}
{"smiles": "Cc1cccc(C(=O)Nc2ccc3c(c2)OCO3)c1", "% Inhibition @ 10 uM": -5.32}
{"smiles": "COCCCN1C(=O)/C(=C\\c2cc(C)n(-c3ccc(F)cc3)c2C)C(C(=O)OC)=C1C", "% Inhibition @ 10 uM": -3.63}
{"smiles": "COc1ccc2c(c1OC)C(c1ccccc1)(c1ccccc1)OC2", "% Inhibition @ 10 uM": 1.35}
{"smiles": "COc1ccc(C2CC(=O)C3=C(C2)OC(N)=C(C#N)C3c2ccccc2F)cc1", "note": "(stereo not drawn)", "% Inhibition @ 10 uM": -1.08}
{"smiles": "COc1cc(C#CCN2CCCCC2)ccc1O", "% Inhibition @ 10 uM": -3.6}
{"smiles": "COc1cc(Cl)c(C=C2C(=O)c3ccccc3C2=O)cc1OC", "% Inhibition @ 10 uM": -3.28}
{"smiles": "CC1CN(c2cc([N+](=O)[O-])ccc2Cl)CC(C)N1", "note": "(stereo not drawn)", "% Inhibition @ 10 uM": 1.4}
{"smiles": "Cc1nc(N)nc(C)c1Cc1ccccc1", "% Inhibition @ 10 uM": 9.29}
{"smiles": "CCc1[nH]nc2c1C(c1ccc(-c3ccc(Cl)cc3)o1)C(C#N)=C(N)O2", "note": "(stereo not drawn)", "% Inhibition @ 10 uM": -0.968}
{"smiles": "COc1ccc(-c2nc(CS(=O)CC(=O)NCCC3=CCCCC3)c(C)o2)cc1", "note": "(stereo not drawn)", "% Inhibition @ 10 uM": 0.689}
{"smiles": "N=C(NOC(=O)c1ccc(Cl)cc1Cl)c1ccccn1", "% Inhibition @ 10 uM": -8.88}
{"smiles": "C=CCSc1nc(=O)cc(O)n1C", "% Inhibition @ 10 uM": 0.526}
{"smiles": "Cc1ccc(OCCCCCc2c(C)n[nH]c2C)c(C)c1", "% Inhibition @ 10 uM": -0.833}
{"smiles": "COc1ccc(C2C3=C(O)CC(C)(C)CC3=Nc3nc(SC)nn32)cc1Br", "note": "(stereo not drawn)", "% Inhibition @ 10 uM": -9.03}
{"smiles": "COc1ccc(-c2nc(N)c(C#N)c(-c3ccco3)c2C)cc1", "% Inhibition @ 10 uM": 2.1}
{"smiles": "C=C(C)Cn1c(C(C)NC(=O)CCC)nc2ccccc21", "note": "(stereo not drawn)", "% Inhibition @ 10 uM": 1.41}
{"smiles": "Cc1ccc(C(C)C)c(OCC(=O)Nc2ccc(S(=O)(=O)N3CCOCC3)cc2)c1", "% Inhibition @ 10 uM": 2.05}
{"smiles": "COc1cc(S(=O)(=O)N2CCCCCC2)c(OC)cc1Cl", "% Inhibition @ 10 uM": -1.32}
